The list shows a part of the results.

For the assay, the target named is T1, OsWOX13 (Oryza sativa, UniProt Q5QMM3 1-267).
T1 sequence: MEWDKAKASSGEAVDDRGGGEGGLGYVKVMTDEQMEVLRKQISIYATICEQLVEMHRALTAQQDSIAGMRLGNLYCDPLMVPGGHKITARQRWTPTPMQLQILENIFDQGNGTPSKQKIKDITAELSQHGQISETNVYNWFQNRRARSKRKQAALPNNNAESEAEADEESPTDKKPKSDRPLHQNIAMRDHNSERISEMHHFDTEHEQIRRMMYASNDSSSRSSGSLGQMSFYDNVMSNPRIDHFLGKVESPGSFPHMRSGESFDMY
Briefly: protein-binding microarray (RPBM); PBS, 2% BSA, 51.3 ng/ul salmon testes DNA, 50 uM zinc acetate, 200 nM TF, 25 C, 1 h; high values mean tight binding. The note with it: protein: recombinant; tags: N-terminal polyhistidine and DsRed monomer fusion (pET32a); label: CyDye5-dUTP incorporated in the synthesized complementary strand; 3' TTTTT single-stranded linker to array surface; dsDNA, one strand shown. In short, it runs like this:
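In PBS with 2% BSA, salmon testes DNA and 50 µM zinc acetate, 200 nM protein was incubated on a custom Agilent array at 25 °C for 1 h and then washed off. The array had been made double-stranded by primer extension with Cy5-dUTP and blocked with 2% BSA. The proteins were transcription factors fused N-terminally to polyhistidine and DsRed, expressed in E. coli BL21-CodonPlus and purified on Ni–NTA. The binding signal is per-feature fluorescence intensity (arbitrary units) from an Axon 4000B scanner.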
Regarding “AGCTAGAATTTGATTAGTCCTTCAGACAGCCAGGATCAGTCGGAGTCACCTAGTGCAG”, the binding signal is 8390 fluorescence intensity (a.u.).

Take “GAAATGACATTTCAATTCATCTATTTATTAGCGGGAGTTGCGGAGTCACCTAGTGCAG”: the binding signal is 5540 fluorescence intensity (a.u.).

Regarding “GGTGTAAATATAAATTTGTACGTTGACATAAAAGAGAAAACGGAGTCACCTAGTGCAG”, the binding signal is 6640 fluorescence intensity (a.u.).

On to “GCTAATTAAGTAGTTTAGTGCTTTAACCATGAATAAACTACGGAGTCACCTAGTGCAG”, for which the binding signal was 4920 fluorescence intensity (a.u.).

Consider “CTGAGATGATTTTGTTCATGCATGAAGTCCTTTCTGAAGTCGGAGTCACCTAGTGCAG”, for which the binding signal was 9590 fluorescence intensity (a.u.).

As to “TAAACTTAATTTTAAAATCATAATTCAGAAATGTGGTGAACGGAGTCACCTAGTGCAG”, the binding signal was 30500 fluorescence intensity (a.u.).

For “TCTCACTGATTGAGCATCAGAGATTCGTTTGTTACCCAGTCGGAGTCACCTAGTGCAG”, the binding signal was 37000 fluorescence intensity (a.u.).

For the sequence “GGAGTGATTAAATTAGTTAATTAGTTAATAATCCCATTGACGGAGTCACCTAGTGCAG”, the binding signal is 56800 fluorescence intensity (a.u.).

Regarding “AGTTTAAATTATGGCAACAACTATAATAATCGAAGAGACACGGAGTCACCTAGTGCAG”, the binding signal was 4170 fluorescence intensity (a.u.).

“GTTAATGACAGCATACCCATTCTTATTCGTTGTTATAATTCGGAGTCACCTAGTGCAG”: the binding signal was 6000 fluorescence intensity (a.u.).

As to “CTATGCAAACTGTGCCAGATTGGTTTGTTCATTATGGGCCCGGAGTCACCTAGTGCAG”, the binding signal was 3840 fluorescence intensity (a.u.).

For “GTACAATAATTAAAACTTAATTAATTGGCTTTCTCGTTTTCGGAGTCACCTAGTGCAG”, the binding signal was 32300 fluorescence intensity (a.u.).

On to “TGCGGATTGGTGGTGTGGGTTTGGACAGGGAATCGCGGGCCGGAGTCACCTAGTGCAG”, for which the binding signal is 3550 fluorescence intensity (a.u.).

On to “TGAACTTAACATGATTGATGACTTATTTGGATGATTCACACGGAGTCACCTAGTGCAG”, for which the binding signal was 42800 fluorescence intensity (a.u.).

Consider “CTGTTTTCTTTTGACTGTTTTGATTAGCATTATATCAGATCGGAGTCACCTAGTGCAG”, for which the binding signal is 11700 fluorescence intensity (a.u.).

Take “ATGATTGTACTACTACTACCTGAATCTTGGAGTAGAGTTACGGAGTCACCTAGTGCAG”: the binding signal was 10700 fluorescence intensity (a.u.).

As to “TCATAATTGACTTTAAACTGCTAAATAGAATAGGTATTTCCGGAGTCACCTAGTGCAG”, the binding signal is 35600 fluorescence intensity (a.u.).

“CTATAATTAAGGATATACATCATGTACTAACCTGACTAAACGGAGTCACCTAGTGCAG”: the binding signal was 21400 fluorescence intensity (a.u.).

With “GATCTAATTTGAAATGTGATAAATTGTTTTCAATAAATGGCGGAGTCACCTAGTGCAG”, the binding signal is 27700 fluorescence intensity (a.u.).

Consider “AATAATTAGGCTGTGTTTAGTTCAGCGCAAAGTTTGGATTCGGAGTCACCTAGTGCAG”, for which the binding signal is 18800 fluorescence intensity (a.u.).

For “ATCTATAGTCAATTTAATATCCAATTCATACAATAGTTACCGGAGTCACCTAGTGCAG”, the binding signal is 3690 fluorescence intensity (a.u.).

Consider “CTCTTAAATTACTTATCCAAATCATGATCTGATTGCACCACGGAGTCACCTAGTGCAG”, for which the binding signal is 21100 fluorescence intensity (a.u.).

Regarding “TAAAATGACAGATTGACAGTGATGGTTAAGTCACCATCGACGGAGTCACCTAGTGCAG”, the binding signal is 46400 fluorescence intensity (a.u.).

As to “GCATCATGATTCCGATAATTGCATTCAGTGTAGTAGTATCCGGAGTCACCTAGTGCAG”, the binding signal is 22300 fluorescence intensity (a.u.).

For the sequence “AGTAATTATTAGCATAATTATTTGTCTCCATTTCTTTCCTCGGAGTCACCTAGTGCAG”, the binding signal is 47400 fluorescence intensity (a.u.).

With “AATCTGACTGGTACACCATAAACAGTTAATGCGTAATAATCGGAGTCACCTAGTGCAG”, the binding signal was 7590 fluorescence intensity (a.u.).

Regarding “CGTTGATAAAATGTAATCTCCCTTTACACCAGGTTTATACCGGAGTCACCTAGTGCAG”, the binding signal is 5720 fluorescence intensity (a.u.).

Regarding “AAAAGGAATTGAAATTTGAATGGTTGAGACCCGGCTTTACCGGAGTCACCTAGTGCAG”, the binding signal is 5850 fluorescence intensity (a.u.).

For “GTAAATTAGTACACGGCAATGTAGTATAAGTTGTAATAGGCGGAGTCACCTAGTGCAG”, the binding signal was 21500 fluorescence intensity (a.u.).

In the case of “ACGGCTCCTACTCCAATCAATCACAACCAACGAATTAGAACGGAGTCACCTAGTGCAG”, the binding signal is 11800 fluorescence intensity (a.u.).

“AGGCTCCAATCAATTGCCGGCAGCAAGCCACCATGCCCCACGGAGTCACCTAGTGCAG”: the binding signal is 10100 fluorescence intensity (a.u.).

As to “CTTGATTGTATTTTAAACTTATTAGTGTGAATTTCGTTAACGGAGTCACCTAGTGCAG”, the binding signal was 14600 fluorescence intensity (a.u.).

Regarding “CGCGGAAACAATCATGTTCTATTATGCAGAGTAAAGACTTCGGAGTCACCTAGTGCAG”, the binding signal was 7280 fluorescence intensity (a.u.).

With “CCTTAACGGGCTTTATTGCTGCTGAGATGAAATCATTGGCCGGAGTCACCTAGTGCAG”, the binding signal was 5450 fluorescence intensity (a.u.).

As to “TTAAATTTAATGCTACTTATCTCACATGATGTCTTGGATACGGAGTCACCTAGTGCAG”, the binding signal is 9870 fluorescence intensity (a.u.).

Regarding “GATTTGATAGGAGGATCGGTCCTAGCATCATACTACACGGCGGAGTCACCTAGTGCAG”, the binding signal is 7100 fluorescence intensity (a.u.).

In the case of “TAAACTAATAACAAAATAAATTATAGATTCCACCTGTAAACGGAGTCACCTAGTGCAG”, the binding signal is 5400 fluorescence intensity (a.u.).

Turning to “TTTAAATTTGAATTCAAATATTTTCTATATATAGTATTTCCGGAGTCACCTAGTGCAG”, the binding signal was 10900 fluorescence intensity (a.u.).

Consider “ATAGATAGATAGATAATAGATAGATAGAAGATAGATAGATCGGAGTCACCTAGTGCAG”, for which the binding signal is 44600 fluorescence intensity (a.u.).

For “GGAGACTCAATTAACGGCTAATTAAAACGACAAAAGCATTCGGAGTCACCTAGTGCAG”, the binding signal was 35000 fluorescence intensity (a.u.).

As to “ACCAAATCGCCGCGGTTGACTAATTACTTGATTTAGCCGCCGGAGTCACCTAGTGCAG”, the binding signal was 4170 fluorescence intensity (a.u.).

Take “CAAATTAAAACATTTACAGCTTACATGACTAGCTACTGCTCGGAGTCACCTAGTGCAG”: the binding signal is 6790 fluorescence intensity (a.u.).

(Values after PMC7819943, “Rice protein-binding microarrays: a tool to detect cis-acting elements near promoter regions in rice”.)
